# Laboratory results as given in PubChem BioAssay AID488969 (Vanderbilt High Throughput Screening Facility, 2010).
# Whole data set: some 110,000 compounds, median “z-score” near -0.1, cut for the highest 2% near 2. This is one part of the list.
# Target: Metabotropic glutamate receptor 8 (Rattus norvegicus) (UniProt P70579)
# Assay: mGluR8 Gi/Go-coupled signaling modulation – cell-based, rat, thallium flux, HTS, primary screen (AID 488969)
# Settings: HEK293 rat mGluR8, GIRK (G protein-gated inwardly rectifying potassium channel) thallium flux, FluoZin2; at 10 µM; stronger effect = higher value; submaximal glutamate (EC20) added with thallium
# Chain of UniProt P70579 (P70579 whole entry, looked up): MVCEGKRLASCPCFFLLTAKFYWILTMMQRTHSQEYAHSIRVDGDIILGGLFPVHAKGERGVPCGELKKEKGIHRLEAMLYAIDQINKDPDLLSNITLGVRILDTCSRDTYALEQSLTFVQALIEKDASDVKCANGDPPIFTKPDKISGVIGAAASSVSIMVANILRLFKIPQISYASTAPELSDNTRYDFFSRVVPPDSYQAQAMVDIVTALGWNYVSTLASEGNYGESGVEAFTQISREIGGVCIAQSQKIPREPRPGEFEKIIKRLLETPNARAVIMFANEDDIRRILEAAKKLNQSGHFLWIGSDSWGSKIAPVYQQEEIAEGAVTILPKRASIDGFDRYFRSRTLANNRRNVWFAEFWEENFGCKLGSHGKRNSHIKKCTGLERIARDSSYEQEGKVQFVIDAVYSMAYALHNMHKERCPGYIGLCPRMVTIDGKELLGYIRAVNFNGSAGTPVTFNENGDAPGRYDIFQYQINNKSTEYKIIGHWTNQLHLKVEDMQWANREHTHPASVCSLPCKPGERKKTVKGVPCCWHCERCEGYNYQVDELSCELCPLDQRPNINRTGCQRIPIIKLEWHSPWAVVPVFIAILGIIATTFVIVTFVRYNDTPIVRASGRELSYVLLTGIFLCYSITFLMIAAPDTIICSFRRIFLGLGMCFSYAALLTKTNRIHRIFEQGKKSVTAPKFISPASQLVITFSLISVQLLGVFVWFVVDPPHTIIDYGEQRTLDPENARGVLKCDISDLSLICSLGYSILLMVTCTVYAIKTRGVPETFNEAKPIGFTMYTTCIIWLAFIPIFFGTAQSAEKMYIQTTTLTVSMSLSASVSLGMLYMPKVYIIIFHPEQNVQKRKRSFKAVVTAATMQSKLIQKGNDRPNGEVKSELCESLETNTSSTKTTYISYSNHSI
row,Compound,z-score
1,COc1ccc(C(=O)Nc2ccccc2-c2ccccc2)cc1Cl,0.0125
2,CCS(=O)(=O)c1ccc(-c2csc(-c3ccc(Cl)cc3)n2)c(Cl)c1Cl,0.151
3,CC1=CN2C(=N)/C(=C/c3cn(CCCOc4ccccc4C)c4ccccc34)C(=O)N=C2S1,0.266
4,COc1ccc(CC(=O)NCC(=O)N/N=C/c2ccco2)cc1,0.186
5,COC(=O)c1cc2n(n1)CCN(Cc1ccc(OC)cc1)C2=O,0.0563
6,Cc1cccc(C(=O)NCC(=O)OCC(=O)N2CC3(C)CC2CC(C)(C)C3)c1 (stereo not drawn),-0.39
7,O=C(CCCCCN1C(=O)CCC1=O)Nc1ccc2c(c1)OCCO2,0.526
8,COCCn1c(SCC(=O)N2CC(=O)Nc3ccccc32)nc2ccccc21,0.0593
9,CN(Cc1cccs1)CC(O)COCc1ccco1 (stereo not drawn),0.393
10,O=c1[nH]c2ccccc2cc1CN(c1ccccc1)S(=O)(=O)c1ccccc1,0.569
11,COc1ccc(F)cc1S(=O)(=O)N1CCN(Cc2ccc3c(c2)OCO3)CC1,-0.332
12,Cc1cccc(NC(=S)NCc2ccc3c(c2)OCO3)c1C,-0.18
13,COc1cc(-c2nc(-c3ccccc3)c(-c3cccs3)[nH]2)cc(OC)c1O,1.07
14,Cn1c(=O)[nH]c(=O)c2c1nc(N1CCCCCC1)n2CC(N)=O,-0.295
15,COc1ccc(C(=O)N(C(C)C)C(C)C)c(OC)c1,0.14
16,CCOc1cc(-c2ccc(N)c(OCC)c2)ccc1N,-1.73
17,O=C(Nc1cccc(F)c1)c1ccc2c(c1)OCO2,-0.185
18,Cc1nc(N2CCN(C)CC2)c2sc(=S)n(C)c2n1,0.624
19,Cc1cccc(-c2n[nH]c([N+](=O)[O-])n2)c1,0.192
20,Cc1ccc(C)c(S(=O)(=O)NCc2ccc(C(=O)NCc3ccco3)cc2)c1,-0.11
21,C=C(C)CN1C(=O)C(O)(CC(=O)c2ccc3c(c2)OCCO3)c2ccccc21 (stereo not drawn),-0.395
22,CCN(C(=O)C1CCN(S(=O)(=O)c2ccc3c(c2)oc(=O)n3C)CC1)c1cccc(C)c1,-0.295
23,c1ccc(CSc2nnc(-c3cccnc3)o2)cc1,-0.395

row,Compound,z-score
1,O=C(Nc1ccc(NC(=S)NC(=O)c2ccccc2Cl)cc1)c1cccc(Cl)c1,0.333
2,Cc1cc(-c2nnc(SCC(=O)c3ccc(Cl)cc3)o2)no1,0.00163
3,O=C(NCc1ccco1)NC1CCCCC1,0.204
4,O=C(c1ccccc1F)N1CCC(N2CCCCCC2)CC1,0.427
5,Fc1ccccc1OCCCCSc1ncccn1,-0.159
6,OCCNCCOCCOc1ccccc1-c1ccccc1,1.04
7,O=C(NCCc1ccccc1F)C1CCCN1S(=O)(=O)c1ccc2ccccc2c1 (stereo not drawn),-0.428
8,CCOC(=O)c1cnc2ccccc2c1Nc1ccc2c(c1)OCCO2,-0.283
9,O=C1CCCC2=C1C(c1cccs1)n1ncnc1N2 (stereo not drawn),-0.0422
10,CCCCCCC(=O)N/N=C(\C)Cc1ccccc1,-0.338
11,O=C(Nc1cccc(NC(=O)c2cccnc2Cl)c1)c1ccco1,0.42
12,CCOC(=O)C1=C(c2ccccc2)NC(=S)NC1C (stereo not drawn),0.119
13,CN1CCN(c2ccc(NC(=O)c3ccc4c(c3)OCO4)cc2)CC1,-0.677
14,COC(=O)c1cccc(CSc2nnc(C)s2)c1,-0.565
15,O=C(CN(C1CCCCC1)S(=O)(=O)c1ccc(F)cc1)NCCCO,0.99
16,CCCC1(C(=O)OC)NC(c2ccc(OC)c(OC)c2)C2C(=O)N(c3ccc4c(c3)OCO4)C(=O)C21 (stereo not drawn),0.00817
17,Nc1c(C(=O)NCc2ccccc2)nnn1Cc1ccccc1,-0.0852
18,CC1CN(CCc2ccccc2)c2nc3c(c(=O)[nH]c(=O)n3C)n2C1 (stereo not drawn),0.411
19,COc1ccccc1NC(=O)COc1ccc(Br)cc1CO,2.95
20,CCN1CCCC1CN(Cc1cc2cc(C)ccc2[nH]c1=O)C(=O)Nc1ccccc1OC (stereo not drawn),-0.807
21,COc1ccc(OC(=O)c2ccncc2)cc1,-0.235
22,O=C(CCCCCN1C(=O)CCC1=O)Nc1ccc(Br)cc1F,-0.095
23,Cc1ccc(C(=O)CSc2nc(N)cc(=O)[nH]2)cc1,-0.0831

row,Compound,z-score
1,CCOc1ccc(/C(O)=C2/C(=O)C(=O)N(CC3CCCO3)C2c2ccc(C)o2)cc1 (stereo not drawn),-0.916
2,COc1ccc(CNC2CCCc3ccccc32)cc1OC (stereo not drawn),-0.106
3,Cc1nnsc1C(=O)N/N=C/c1ccccc1,0.0925
4,COc1ccc(/C=N/N2C(=O)CSC2=S)cc1,-0.223
5,CC(C)c1nnc(NC(=O)CCC(=O)NC2CCCc3ccccc32)s1 (stereo not drawn),-0.244
6,COc1ccc(NC(=O)C2CC(=O)OC2c2ccccc2)cc1 (stereo not drawn),-0.227
7,COc1cc(C)nc(Oc2ccc(OCCOc3ccc(C)cc3)nn2)n1,0.22
8,CCOC(=O)c1c(C)nc2sc3c(=O)n(-c4ccc(C)cc4)cnc3c2c1-c1ccc(OC)cc1,-0.181
9,O=C(Nc1cccc(F)c1)C1CCN(C(=O)c2ccccc2Cl)CC1,-0.486
10,CCN1C(=O)C(C(=O)Nc2ccc(OC)cc2)C2CC1(C)Oc1ccccc12 (stereo not drawn),-0.393
11,O=C(CN1C(=O)c2cccc3cccc1c23)N1CCN(c2ccc(F)cc2)CC1,0.917
12,Cc1ccccc1NC(=O)c1ccc(C)c(S(=O)(=O)Nc2ccccn2)c1,-0.0342
13,C=CCn1c(SCC(=O)O)nnc1-c1cccs1,0.204
14,Cc1ccc(C)c(N=Nc2nc3ccccc3n2C)c1,-0.337
15,Cc1oc(-c2cccc(Cl)c2)[n+]([O-])c1C,0.246
16,O=C(CC(SCCO)c1ccc2c(c1)OCO2)c1cccs1 (stereo not drawn),-0.239
17,Nc1c(-c2ccccc2)c(CSc2nc3ccccc3[nH]2)nn1-c1ccc(C(=O)O)cc1,-0.238
18,COc1ccc(C(CC(=O)NCCCN2CCOCC2)NS(=O)(=O)c2ccc(C)cc2)cc1 (stereo not drawn),1.53
19,COc1ccccc1Nc1nnc(SCC(=O)N2CC(=O)Nc3ccccc32)s1,-0.0654
20,CC1(C)CC(=O)c2sc(NC(=O)c3ccc4ncsc4c3)nc2C1,0.617
21,c1ccc(COc2ccc(CN3CCN(c4ccccn4)CC3)cc2)cc1,0.0284
22,COc1ccc2c(C)cc(SCC(=O)NCCN3C(=O)CSC3=O)nc2c1,-0.133
23,COc1cc(S(=O)(=O)NCc2cccnc2)ccc1F,-0.295

row,Compound,z-score
1,COc1ccc(C(=O)NC(NC(=S)Nc2ccc(S(N)(=O)=O)cc2)C(Cl)(Cl)Cl)cc1 (stereo not drawn),-0.78
2,Cc1cc(=O)[nH]c(SCC(=O)N2CCCc3ccccc32)n1,0.265
3,CCCC(O)(CCC)C(=O)NNc1ccccc1,-0.799
4,COc1ccc(S(=O)(=O)NC(CC(=O)NCCc2ccccc2)c2ccco2)cc1 (stereo not drawn),0.734
5,N=c1c(C(=O)NCc2ccco2)cc2c(=O)n3ccccc3nc2n1Cc1ccccc1,1.15
6,Cc1cccc(OCCN2C(=O)C(=O)c3cccc(C)c32)c1,-0.0757
7,O=C(c1ccc(-c2ccc(Cl)cc2)o1)N1CCN(c2ccc([N+](=O)[O-])cc2Cl)CC1,0.535
8,O=C(NCc1ccccc1Cl)c1ccc(S(=O)(=O)Nc2cccc(C(F)(F)F)c2)cc1,-0.166
9,CCn1cc([N+](=O)[O-])c(C(=O)Nc2ccn(Cc3ccccc3F)n2)n1,0.324
10,COCc1nnc(NC(=O)c2cccs2)s1,-0.0696
11,Cc1ccc(O)c(-c2cc(C(F)(F)F)[nH]n2)c1,-1.36
12,CC1CCN(c2nc(/C=C/c3ccccc3)nc3ccccc23)CC1,-0.13
13,COc1ccc(NC(=O)CN(c2cccc(C(F)(F)F)c2)S(C)(=O)=O)cc1OC,-0.276
14,CCOC(=O)C(NS(=O)(=O)c1ccccc1)(C(F)(F)F)P(=O)(OC(C)C)OC(C)C (stereo not drawn),-0.166
15,CCOC(=O)c1sc2nc(C)cc(-c3ccccc3)c2c1N,-0.0449
16,COCCn1nnnc1C(c1ccc(C(F)(F)F)cc1)N1CCOCC1 (stereo not drawn),-0.933
17,CCOC(=O)c1c(NC(=O)CNCCOC)sc2c1CCCC2,-1.06
18,COCCn1c(-c2ccc(Cl)cc2)cnc1SCC(=O)NCCc1ccc(OC)c(OC)c1,-0.247
19,COC(=O)C1CCN(C(=O)CSc2ccccc2)CC1,-0.196
20,NC(=O)c1ccccc1NC(=O)NC1CCCCC1,0.353
21,CC(=O)Nc1c(C(=O)C2CC2)oc2ccccc12,-0.133
22,CC(=O)Oc1ccc(N(C(C)=O)S(=O)(=O)c2cc([N+](=O)[O-])ccc2C)cc1,-0.849
23,O=C(O)CCC(=O)Nc1ccc(Cc2ccc(NC(=O)CCC(=O)O)c(O)c2)cc1O,-0.64

row,Compound,z-score
1,O=c1cc(CO)oc(C(Nc2ccccn2)c2ccsc2)c1O (stereo not drawn),-0.352
2,COC(=O)C(C)N(c1ccc(C)cc1)S(=O)(=O)c1c(C)[nH]c(=O)[nH]c1=O (stereo not drawn),-0.0145
3,COc1ccc(CCN2C(=O)CC(NNC(=O)c3cccc(O)c3)C2=O)cc1 (stereo not drawn),-0.268
4,Cc1ccc(N)c2c1OCCC2=O,-0.365
5,CCOc1ccc(Br)cc1S(=O)(=O)Nc1ccc(Cl)c(S(=O)(=O)N(C)C)c1,-1.32
6,Cc1cccc(NC(=S)NC2CC3CCC(C2)N3Cc2ccco2)c1 (stereo not drawn),0.812
7,CCOc1cc(N(CC)CC)ccc1/C=C(/C#N)c1nc2ccccc2[nH]1,-0.645
8,CC1(C)CC(=O)C(C=NCc2cccnc2)=C(O)C1,-0.0188
9,O=C(COc1ccc(-c2nnco2)cc1)NCc1ccccc1Cl,-0.263
10,COc1ccc(-c2nnc(SC(C)C(=O)NCc3ccc4c(c3)OCO4)n2Cc2ccco2)cc1 (stereo not drawn),-0.374
11,COCCCNC(=O)/C=C/c1cccc(Cl)c1,0.204
12,Cc1nc2ccccn2c1C(=O)Nc1ccc2c(c1)OCCO2,0.163
13,S=C(Nc1ccc(N2CCOCC2)cc1)Nc1ccc2nc(-c3ccco3)c(-c3ccco3)nc2c1,0.507
14,CC(C)C(=O)Nc1ccc(NC(=O)c2cc3ccccc3o2)cc1,-0.885
15,O=C(NCN1CCCCC1)c1cnccn1,-0.287
16,CCn1c(=Nc2ccc(N3CCOCC3)cc2)ccc2ccccc21,-0.905
17,COc1ccc(CNC(=O)c2cnc3n(c2=O)CCS3)cc1,-0.183
18,O=C(NC(=S)Nc1cccc(CO)c1)c1ccc(-c2ccccc2)cc1,-0.0673
19,COc1ccc(NC(=O)c2cccc(C#N)c2)cc1NS(=O)(=O)c1ccc(F)cc1,-0.241
20,c1ccc2nc(N3CCOCC3)c(N3CCOCC3)nc2c1,-0.394
21,Cc1ccc(C2CC(C(F)(F)F)n3nc(C(=O)NCC4CCCO4)cc3N2)cc1 (stereo not drawn),0.887
